#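 Dose response: 5 concentrations. Exposure: 48 h. Format: 96-well plates. Endpoint: linear interpolation; highest concentration if not reached. GI50: concentration for 50% inhibition of growth. The concentration for full growth arrest is given as TGI.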
# Tested on: NCI-H322M lung
# Experiment: NCI-60 cell line screen, 48 h
SMILES,GI50 [µM],TGI [µM]
Cc1ccc(-c2csc(N/N=C/c3nc4ccccc4n3C3CC3)n2)cc1,6.47,> 100
C#C[C@]1(O)CC[C@H]2[C@@H]3CC=C4c5sc(Nc6cc(Cl)ccc6OC)nc5CC[C@]4(C)[C@H]3CC[C@@]21C,6.05,> 100
O=C(Nc1cccc(-c2nc(-c3ccc(NC(=O)c4cccs4)cc3Cl)no2)c1)Nc1ccc(NC(=O)C2CC2)c(C(F)(F)F)c1,0.318,1.79
Nc1nc(-c2cccc([N+](=O)[O-])c2)c(N=Nc2ccc(Br)cc2)s1,14,40.9
CCC1=Cc2c(OC)cccc2OC12C=Cc1c(OC)cccc1O2 (stereo not given),3.97,> 100
